Assay results as given in publication PMC2850574 (Biochemistry, 2010).

Biological target: the molecule itself

B1: wild-type SecA (Escherichia coli SecA ATPase) (natural protein)
chain: not shown
Q: For B1, which Kd is on record?
A: < 1 nM
